pIC50: −log10 of the molar value. A lower IC50 marks a more sensitive line; a limit (>, <) means that the fit lies beyond the doses tested. For AUC the same curve is integrated over the 256-fold range of doses and scaled to a fraction: 1 means no effect, lower means more sensitive. For some assays here: Where the top dose is marked as inferred, it is not printed in the source and was worked back from the curve model.
What was measured:
Assay in all cases: Viability of human cancer cell lines after 72 h of drug (GDSC screen)
[1] = compound: CNCc1ccc(-c2[nH]c3cc(F)cc4c3c2CCNC4=O)cc1 [AG-014699]; conditions: top dose 5 µM; top dose inferred
Protocol: (§1)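 Human cancer cell lines in 384-well plates, medium with 10% serum, drug for 72 h over a 256-fold dose range (nine 2-fold or five 4-fold steps up to the top dose). Adherent lines were fixed and stained with the nucleic acid dye Syto60, suspension lines read with resazurin; signal relative to control wells, capped at 0 and 100%. One two-parameter sigmoid per drug and line, fitted in a mixed model over all curves with the slope shared within a line.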

[2] = compound: O=c1cc(CN2CCOCC2)occ1OCCCCCSc1ccnc2cc(C(F)(F)F)ccc12 [EHT 1864]; conditions: top dose 10 µM; top dose inferred
Protocol: as §1

[3] = compound: O=c1cc(N2CCOCC2)oc2c(-c3cccc4c3sc3ccccc34)cccc12 [NU-7441]; conditions: top dose 2 µM; top dose inferred
Protocol: as §1

[4] = compound: N[C@@H](CSC(c1ccccc1)(c1ccccc1)c1ccccc1)C(=O)O [S-Trityl-L-cysteine]; conditions: top dose 5.12 µM; top dose inferred
Protocol: as §1

[5] = compound: N=C(N)NC(=N)NCCc1ccccc1 [Phenformin]; conditions: top dose 4000 µM; top dose inferred
Protocol: as §1

[6] = compound: CCC1=C[C@@H]2CN(C1)Cc1c([nH]c3ccccc13)[C@@](C(=O)OC)(c1cc3c(cc1OC)N(C)[C@H]1[C@@](O)(C(=O)OC)[C@H](OC(C)=O)[C@]4(CC)C=CCN5CC[C@]31[C@@H]54)C2 [Vinorelbine]; conditions: top dose 0.064 µM; top dose inferred
Protocol: as §1

[7] = compound: COc1cc2nccc(Oc3ccc(NC(=O)C4(C(=O)Nc5ccc(F)cc5)CC4)cc3)c2cc1OC [XL-184]; conditions: top dose 5.12 µM; top dose inferred
Protocol: as §1

[8] = compound: C=CC(=O)Nc1cc(NC(=O)c2ccc(C)c(NC(=O)c3ccno3)c2)cc(C(F)(F)F)c1 [QL-XI-92]; conditions: top dose 10.24 µM; top dose inferred
Protocol: as §1

[9] = compound: COc1cc2ncnc(Nc3cc(Br)c(O)c(Br)c3)c2cc1OC [WHI-P97]; conditions: top dose 10.24 µM; top dose inferred
Protocol: as §1

[10] = compound: COc1cc2ncnc(Nc3ccc(F)c(Cl)c3)c2cc1OCCCN1CCOCC1 [Gefitinib]; conditions: top dose 0.5 µM
Protocol: as §1

Cell Line	AUC [1]	pIC50 [1]	AUC [2]	pIC50 [2]	AUC [3]	pIC50 [3]	AUC [4]	pIC50 [4]	AUC [5]	pIC50 [5]	AUC [6]	pIC50 [6]	AUC [7]	pIC50 [7]	AUC [8]	pIC50 [8]	AUC [9]	pIC50 [9]	AUC [10]	pIC50 [10]
EW-13 (Ewing sarcoma, suspension)	0.979	< 5.30	0.986	< 5.00	0.981	< 5.70	0.976	< 5.29	0.769	2.77	0.604	8.10	0.882	< 5.29	0.745	5.45	0.916	< 4.99	0.975	< 6.30
EW-16 (Ewing sarcoma, adherent)	0.948	< 5.30	0.96	< 5.00	0.962	< 5.70	0.667	6.02	0.798	2.70	0.515	8.36	0.918	< 5.29	0.965	< 4.99	0.875	< 4.99	0.937	< 6.30
EW-18 (Ewing sarcoma, suspension)	0.93	< 5.30	0.974	< 5.00	0.945	< 5.70	0.985	< 5.29	0.658	3.15	0.573	8.19	0.855	5.34	0.849	5.07	0.925	< 4.99	0.953	< 6.30
EoL-1-cell (haematopoietic neoplasm, suspension)	0.936	< 5.30	0.812	5.34	0.91	< 5.70	0.516	6.45	0.023	> 4.81	0.489	8.43	0.019	> 7.70	0.422	6.40	0.794	5.39	0.953	< 6.30
Farage (B-cell lymphoma, suspension)	0.991	< 5.30	0.971	< 5.00	0.906	5.73	0.699	5.99	0.892	2.49	0.459	8.50	0.852	5.53	0.866	5.19	0.993	< 4.99	0.979	< 6.30
GB-1 (glioma, adherent)	0.935	< 5.30	0.977	< 5.00	0.917	< 5.70	0.811	5.48	0.388	3.94	0.905	< 7.19	0.812	5.47	0.938	< 4.99	0.939	< 4.99	0.978	< 6.30
GCIY (stomach, adherent)	0.972	< 5.30	0.895	< 5.00	0.918	< 5.70	0.772	5.65	0.92	< 2.40	0.811	7.41	0.921	< 5.29	0.858	4.99	0.896	< 4.99	0.902	< 6.30
GDM-1 (acute myeloid leukaemia, suspension)	0.958	< 5.30	0.919	< 5.00	0.986	< 5.70	0.567	6.32	0.418	3.82	0.78	7.60	0.315	7.00	0.62	5.87	0.909	< 4.99	0.986	< 6.30
GI-1 (glioma, adherent)	0.961	< 5.30	0.977	< 5.00	0.975	< 5.70	0.701	5.94	0.548	3.47	0.537	8.30	0.817	5.57	0.937	< 4.99	0.972	< 4.99	0.979	< 6.30
GOTO (neuroblastoma, adherent)	0.938	< 5.30	0.935	< 5.00	0.902	< 5.70	0.899	< 5.29	0.954	< 2.40	0.859	< 7.19	0.94	< 5.29	0.983	< 4.99	0.982	< 4.99	0.96	< 6.30
H9 (lymphoid neoplasm, suspension)	0.992	< 5.30	0.975	< 5.00	0.956	< 5.70	0.58	6.29	0.986	< 2.40	0.696	7.90	0.954	< 5.29	0.892	5.08	0.947	< 4.99	0.992	< 6.30
HA7-RCC (kidney, adherent)	0.984	< 5.30	0.958	< 5.00	0.964	< 5.70	0.84	5.39	0.985	< 2.40	0.757	7.62	0.898	< 5.29	0.953	< 4.99	0.946	< 4.99	0.976	< 6.30
HC-1 (hairy cell leukaemia, suspension)	0.975	< 5.30	0.976	< 5.00	0.968	< 5.70	0.628	6.15	0.525	3.54	0.528	8.32	0.922	< 5.29	0.809	5.29	0.923	< 4.99	0.987	< 6.30

Reference: the supplement of paper PMC4967469
